Reference: PubChem BioAssay AID1460 (National Center for Advancing Translational Sciences (NCATS), 2008)
Hit rate of the full screen: of about 270,000 compounds, about 5,800 (2.1%) were called active. The shares of active, inactive and inconclusive entries below differ from those in the screen. Calls follow the shape of the dose curve; as a rule, active = well fitted inhibition curve with a large enough effect; inconclusive = small, poorly fitted or top-dose-only effect; inactive = flat fitted curve, though single readings scatter. Potencies beside an inconclusive call are fits to weak or partial responses and may not hold up.

What follows are compounds tested against Microtubule-associated protein tau (Homo sapiens) (UniProt P10636) (assay: qHTS for Inhibitors of Tau Fibril Formation, Thioflavin T Binding). Settings: recombinant tau K18 P301L, heparin-induced fibrillization, ThT fluorescence; series mostly up to 57.4 µM.
How it was run: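 Using a mix of unlabeled (15 uM) and Alexa 594-labeled (0.24 uM) tau K18 P301L, heparin-triggered fibrillization over 6 hr at 37 C was scored by ThT fluorescence.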
Also: nearly all actives have a fitted effect of over 55% in size.
Potency is read from the fitted curve at half-maximal effect; tags tell the direction and shape of the fitted curve.

UniProt P10636, sequence (P10636 whole entry, looked up): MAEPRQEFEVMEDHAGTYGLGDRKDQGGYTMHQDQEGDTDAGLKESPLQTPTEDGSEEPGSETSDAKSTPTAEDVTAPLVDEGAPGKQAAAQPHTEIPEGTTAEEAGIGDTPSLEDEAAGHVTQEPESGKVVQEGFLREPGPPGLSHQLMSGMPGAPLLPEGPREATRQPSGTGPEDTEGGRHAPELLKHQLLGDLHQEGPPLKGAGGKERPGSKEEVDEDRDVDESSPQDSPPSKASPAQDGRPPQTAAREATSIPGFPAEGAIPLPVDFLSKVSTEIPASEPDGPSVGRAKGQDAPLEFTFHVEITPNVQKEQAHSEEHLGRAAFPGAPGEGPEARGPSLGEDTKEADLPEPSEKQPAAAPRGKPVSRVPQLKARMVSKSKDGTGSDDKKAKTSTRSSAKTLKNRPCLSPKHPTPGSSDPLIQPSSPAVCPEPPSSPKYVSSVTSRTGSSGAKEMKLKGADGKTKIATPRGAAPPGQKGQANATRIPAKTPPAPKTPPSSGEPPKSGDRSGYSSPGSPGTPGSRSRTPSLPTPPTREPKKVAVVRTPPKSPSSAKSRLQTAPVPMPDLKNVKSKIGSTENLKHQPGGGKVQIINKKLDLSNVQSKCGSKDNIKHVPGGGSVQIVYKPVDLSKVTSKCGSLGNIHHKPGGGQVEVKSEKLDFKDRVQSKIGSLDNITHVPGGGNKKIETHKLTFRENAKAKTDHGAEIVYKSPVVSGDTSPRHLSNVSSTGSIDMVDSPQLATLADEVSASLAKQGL

Row | SMILES | Potency
1 | CCCCS(=O)CC(COc1ccc(Cl)cc1)OC(=O)c1ccccc1 (stereo unspecified) | inactive
2 | Cc1noc(/C=C/N(C)C)c1S(=O)(=O)N1CCc2ccccc21 | inconclusive: 20 µM [inhibitor, single point]
3 | CC(=O)c1cc(F)c(N2CCN(c3ccc([N+](=O)[O-])cc3F)CC2)cc1C | inconclusive: 0.316 µM [inhibitor, full curve]
4 | CCc1cccc(NC(=O)Nc2cccs2)c1 | inconclusive: 20 µM [inhibitor, partial curve]
5 | COc1ccccc1N1CCN(C(CNC(=O)C(=O)NCc2ccc(F)cc2)c2cccnc2)CC1 (stereo unspecified) | inconclusive: 17.8 µM [inhibitor, partial curve]
6 | O=C(NC1=NCCS1)c1cccc(N2C(=O)c3ccccc3C2=O)c1 | inactive
7 | COc1ccc(C)cc1NC(=O)c1cc2c(=O)n(Cc3cccnc3)ccc2nc1C | inactive
8 | CCS(=O)(=O)c1ncc(Cl)c(C(=O)Nc2c(C(=O)Nc3cccc(C)c3)oc3ccccc23)n1 | active: 3.98 µM
9 | COC(=O)c1sc(=S)sc1C(=O)OC | active: 3.16 µM
10 | CC1(C)Cc2c(sc3nc(SCC(=O)N4CCOCC4)nc(N)c23)CO1 | inactive
11 | Cc1cccc(COCC(Cc2ccccc2)N2CCN(C(=O)c3ccc(Cl)c(Cl)c3)CCC2=O)c1 (stereo unspecified) | inconclusive: 10 µM [inhibitor, partial curve]
12 | CCCCNC(=O)C1CCN(c2nc3ccccc3nc2C(F)(F)F)CC1 | inactive
13 | COc1ccc(Nc2cc(C)c3cc(NC(=O)Cc4ccc(Cl)cc4)ccc3n2)cc1 | active: 11.2 µM
14 | Cc1ccc(NC(=S)NC2CCCC2)cc1C | inactive
15 | CC1(C)CC(=O)C2=C(C1)OC(N)=C(C#N)C21CCN(Cc2ccccc2)CC1 | inconclusive: 35.5 µM [inhibitor, partial curve]
16 | Cc1ccc(NC(=O)N2CCN(c3ccc(Cl)c(Cl)c3)CC2)cc1 | inconclusive: 0.708 µM [inhibitor, full curve]
17 | COc1ccc(CC(=O)NNC(=O)CCC(=O)Nc2cc(C)ccc2C)cc1 | inactive
18 | CCOc1ccc(-n2c(C)cc(/C=N/N(C)C)c2C)cc1 | inconclusive: 20 µM [inhibitor, partial curve]
19 | OC(CON=C1c2ccccc2-c2ccccc21)CN1CCNCC1 (stereo unspecified) | inactive
20 | COc1ccc(NC(=O)Nc2nnc(-c3ccncc3)s2)cc1 | inconclusive: 15.8 µM [inhibitor, partial curve, poor fit]
21 | Cn1c(SCc2nc3ccccc3s2)nnc1-c1ccc2c(c1)OCO2 | inconclusive: 7.94 µM [inhibitor, partial curve]
